Measurements as given in US20250296984A1, “THERAPEUTIC AND DIAGNOSTIC AGENTS AND USES THEREOF” (priority 2022, published 2025).
Numbering of substitutions follows the chain as printed.

B1: 2F5B11: mouse IgG1 kappa antibody against US28 ECD1 Peptide-N; VH SEQ ID NO: 233, VL SEQ ID NO: 235 (antibody, V domains shown)
VH: EVQLQESGAELAKPGASVKMSCKASGYTFSSYWIHWIKQRPGQGLEWIGYINPNTAYTEFNQKFMDKATLTADKSSSTAYMQLTSLTSEDSAVYYCARLRSDRTGFAYWGQGTLVTVSA
VL: QIVLTQSPSSLAVSVGEKVTMS[about 80 residues not printed]FGAGTKLEIK
modifications: Mature form of VH sequence of 2F5B11, without the leader sequence; Mature form of VL sequence of 4H3C3, without the leader sequence
B2: 4H3C3: mouse IgG1 kappa antibody against US28 ECD1 Peptide-N; VH SEQ ID NO: 187, VL SEQ ID NO: 189 (antibody, V domains shown)
VH: QVQLQQSGAELAKPGASVKMSCKASGYTFTSYWMHWVKQRPGQGLEWIGYINPSTGYAEYNQKFKDKATLTADKSSSTAYMQLSSLTSEDSAVYYCARLRFGSSGFAYWGQGTLVTVSS
VL: QIVLTQSPSSLAVSVGEKVTMS[about 80 residues not printed]FGAGTKLEIK
modifications: Mature form of VH sequence of 4H3C3, without the leader sequence; Mature form of VL sequence of 4H3C3, without the leader sequence
B3: 13-1C10-1G9: mouse hybridoma subclone antibody against US28 ECD3 Peptide-1 and -2; sequenced (antibody)
heavy: EVKLVESGGGLVKPGGSLKLSCAASGFTFSSYAMSWVRQTPEKRLEWVASISSGGSTYYPDSVKGRFTISRDNARNILYLQMSSLRSEDTAMYYCARGGSTMITTGLGFAYWGQGTLVTVSAAKTTPPSVYPLAPGSAAQTNSMVTLGCLVKGYFPEPVTVTWNSGSLSSGVHTFPAVLQSDLYTLSSSVTVPSSTWPSETVTCNVAHPASSTKVDKKIVPRDCGCKPCICTVPEVSSVFIFPPKPKDVLTITLTPKVTCVVVDISKDDPEVQFSWFVDDVEVHTAQTQPREEQFNSTFRSVSELPIMHQDWLNGKEFKCRVNSAAFPAPIEKTISKTKGRPKAPQVYTIPPPKEQMAKDKVSLTCMITDFFPEDITVEWQWNGQPAENYKNTQPIMDTDGSYFIYSKLNVQKSNWEAGNTFTCSVLHEGLHNHHTEKSLSHSPGK
light: QIVLTQSPAIMSASPGEKVTMTCSASSSVSYMHWYQQKSGTSPKRWIYDTSKLASGVPARFSGSGSGTSYSLTISSMEAEDAATYYCQQWSSNPPLTFGAGTKLELKRADAAPTVSIFPPSSEQLTSGGASVVCFLNNFYPKDINVKWKIDGSERQNGVLNSWTDQDSKDSTYSMSSTLTLTKDEYERHNSYTCEATHKTSTSPIVKSFNRNEC
B4: 14-4E4-1E8: mouse hybridoma subclone antibody against US28 ECD3 Peptide-1 and -2; sequenced (antibody)
heavy: EVKLVESGGDLVKPGGSLKLSCAASGFTFSSYAMSWVRQTPEKRLEWVASISSGGRTYYPDSVKGRFTISRDNARNILYLQMSSLRSEDTAIYYCARGGTRHSYGNGFDYWGQGTTLTVSSAKTTPPSVYPLAPGSAAQTNSMVTLGCLVKGYFPEPVTVTWNSGSLSSGVHTFPAVLQSDLYTLSSSVTVPSSTWPSETVTCNVAHPASSTKVDKKIVPRDCGCKPCICTVPEVSSVFIFPPKPKDVLTITLTPKVTCVVVDISKDDPEVQFSWFVDDVEVHTAQTQPREEQFNSTFRSVSELPIMHQDWLNGKEFKCRVNSAAFPAPIEKTISKTKGRPKAPQVYTIPPPKEQMAKDKVSLTCMITDFFPEDITVEWQWNGQPAENYKNTQPIMDTDGSYFIYSKLNVQKSNWEAGNTFTCSVLHEGLHNHHTEKSLSHSPGK
light: B3 light with T5S, A9T, T50S, S91T, L96I

Legend:
BSA (Bos taurus) = experiment: ELISA, BSA coating (control); type: binding; details: ECD1 subclones
[1] = tested on: control CHO cells (US28 negative); experiment: FACS binding to US28 negative control CHO cells; parameters: species or system Chinese hamster; details: secondary antibody background removed

Molecule | absorbance, Coating: BSA (BSA (Bos taurus)) | Percentage of binding to CHO cells ([1]; Table 7B, (1:5)) [%] | Percentage of binding to CHO cells ([1]; Table 7A, (1:5) (200 μg/ml)) [%]
B1 | 0.0508 | 0.39 | 
B2 | 0.0164 | 0.31 | 
B3 |  |  | 0.44
B4 |  |  | 0.03
